Laboratory results reported in ChEMBL document CHEMBL4888484, “Replenishing the malaria drug discovery pipeline: Screening and hit evaluation of the MMV Hit Generation Library 1 (HGL1) against asexual blood stage Plasmodium falciparum ,using a nano luciferase reporter read-out” (2022).
In all, about 150,000 compounds went through this assay and about 540 (0.36%) showed an effect of 50% or more. This is one part of the list.

Tested on: Plasmodium falciparum
Experiment: Primary screen in NF54 nanoGlo assay, in single point, at 2uM, 72h; a lower Z score goes with more inhibition
Format: functional, Erythrocyte
Settings: timepoint 72 hour

Compound | % Inhibition [%] | Z score
COCCn1c(N)c(C(=O)CN(C)c2cccc(C)c2C)c(=O)[nH]c1=O | -5 | 0.79
Brc1ccc2nc(Nc3cccc4ccccc34)nc(-c3ccccc3)c2c1 | -13 | 2.05
CCn1cc(CN(C)C(=O)CCc2ccncc2)cn1 | 1 | -0.22
Cc1cc(=O)[nH]c(N2CCC(NC(=O)Cc3noc4ccccc34)CC2)n1 | -4 | 0.75
OCCN(CCCc1cncc2ccccc12)C1CCC1 | -9 | 1.15
Cc1ccc(Cc2nc(N3CCN(S(=O)(=O)c4ccc(C)cc4)CC3)c3c(C)nn(-c4ccccc4)c3n2)cc1 | -10 | 1.51
O=C(NCCN1CCOCC1)C1CCN(C(=O)c2ccco2)CC1 | 0 | 0.02
CN1CC2(CCN(Cc3ccc4c(c3)OCO4)CC2)C[C@@H](c2ccccc2)C1=O | -9 | 1.03
CN(Cc1ccccc1)Cn1cnc2c1c(=O)n(C)c(=O)n2C | -2 | 0.34
COc1cc(N2CCC3(CC2)c2nc[nH]c2CCN3S(C)(=O)=O)ncn1 | 7 | -0.97
CCOc1ccc(CNc2nc(C3CC3)no2)cc1 | -2 | 0.25
C[C@H](NCC1(C(N)=O)CCOCC1)C(C)(C)c1ccc(F)cc1 | -3 | 0.58
Cc1nc2ncnn2c(N2CC[C@]3(CNc4ccccc43)C2)c1C | -11 | 1.48
COCc1nc(C)cc(N(C)Cc2nnc3n2CCNC3=O)n1 | -13 | 1.4
NC(=O)[C@]12CCC[C@H]1CN(C(=O)Nc1ccc(C3CCC3)cn1)C2 | -9 | 1.71
CCc1ccc(S(=O)(=O)C2CS(=O)(=O)CC2NCc2ccccc2C)cc1 (stereo unspecified) | -15 | 1.77
COc1cccc([C@@H]2c3nc[nH]c3CCN2Cc2cnc(OC)nc2)c1 | 10 | -1.28
Cc1ncc(S(C)(=O)=O)c(N2CCC[C@H](C(=O)N3CCCC3)C2)n1 | 9 | -1.27
COc1cccc(S(=O)(=O)N2C3C=CCC2CC3)c1 (stereo unspecified) | -6 | 0.8
CS(=O)(=O)CC1(CON=C(N)c2cccnc2)CC1 | 36 | -0.7
NC(=O)c1ccc(NC(=O)CN2CCN(c3ccc(F)cc3)C2=O)cc1 | -7 | 0.85
CCN1c2ccccc2C(=O)CS1(=O)=O | -8 | 0.99

Compound | % Inhibition [%] | Z score
CN(C)c1cnccc1NC(=O)N[C@H]1CCN(C2CCC2)C1=O | 0 | 0
CC(CNC(=O)[C@@H](C)c1ccccc1)c1nnn[nH]1 (stereo partly specified) | -2 | 0.38
O=C(NC[C@H]1CCOc2ccccc21)c1cnn(C2CCC2)c1 | 2 | -0.3
CCC(NC(=O)c1ccc[nH]1)C1CN(Cc2ccccc2)CCO1 (stereo unspecified) | 1 | -0.2
CCc1c(C)nn(CC(=O)N(C)Cc2cc(C3CC3)on2)c1C | -9 | 1.09
Cc1nc(C)c(F)c(NCc2ccnc(N)c2)n1 | 4 | -0.52
COc1ccc(CN2CCN(C(=O)c3ccsc3)CC2)cn1 | 4 | -0.5
COCCC(=O)N[C@H]1CN(C2CCCC2)C[C@@H]1c1ccc(OC)cc1 | 6 | -1.26
CCN(C(=O)c1cc(S(=O)(=O)N(CC)CC)cn1C)[C@@H](C)COC | 10 | -1.26
Cc1nnnn1Cc1nc(C(C)(C)C)cs1 | -5 | 0.5
O=C1CN(Cc2ccccc2)C(=O)[C@@H](Cc2ccc(O)cc2)N1 | -3 | 0.5
CC(C)COc1nc(-c2cccs2)n(-c2cccc(NC(=O)C(C)C)c2)n1 | 1 | -0.12
Cc1ccc2nc(-c3ccccc3Cn3cccn3)[nH]c2c1 | -12 | 1.78
CC1(C)CN(C(=O)NCC2COc3ccccc3O2)[C@H]2COC[C@H]21 (stereo partly specified) | 7 | -1.53
CC(C)Cc1cc(C(=O)N[C@H]2CCN(c3cnccn3)C[C@@H]2O)nc(N)n1 | -8 | 1.28
CC1=CC(C)(C)NC(=O)N1c1ccccc1O | -7 | 0.83
O[C@@H](CNC1CCCC1)COc1ccc(-c2ccccc2)cc1 | -7 | 0.84
Cc1ncsc1CCNC(=O)c1ccc(CN2CCC(C)CC2)o1 | -8 | 1.24
NC(=O)c1ncc(Br)cc1Br | -2 | 0.23
CC1CCC(c2noc([C@H]3CCCS(=O)(=O)C3)n2)CC1 (stereo partly specified) | -2 | 0.3
Cc1cc([C@@H](O)CNS(=O)(=O)c2ccccc2)c(C)o1 | -7 | 0.78
